How the values were obtained:
Assay in all cases: ELISA: Siglec-Fc coated at 0.2 µg/mL, biotin-labeled AI-071 titrated 2-fold, avidin-HRP
[1] = target: T1, human Siglec-2 Fc fusion protein (human, UniProt P20273 20-687, limits assumed)
T1 construct: Recombinant IgG-Fc fusion, coated at 0.2 µg/mL; not shown: IgG-Fc
T1 sequence (looked up): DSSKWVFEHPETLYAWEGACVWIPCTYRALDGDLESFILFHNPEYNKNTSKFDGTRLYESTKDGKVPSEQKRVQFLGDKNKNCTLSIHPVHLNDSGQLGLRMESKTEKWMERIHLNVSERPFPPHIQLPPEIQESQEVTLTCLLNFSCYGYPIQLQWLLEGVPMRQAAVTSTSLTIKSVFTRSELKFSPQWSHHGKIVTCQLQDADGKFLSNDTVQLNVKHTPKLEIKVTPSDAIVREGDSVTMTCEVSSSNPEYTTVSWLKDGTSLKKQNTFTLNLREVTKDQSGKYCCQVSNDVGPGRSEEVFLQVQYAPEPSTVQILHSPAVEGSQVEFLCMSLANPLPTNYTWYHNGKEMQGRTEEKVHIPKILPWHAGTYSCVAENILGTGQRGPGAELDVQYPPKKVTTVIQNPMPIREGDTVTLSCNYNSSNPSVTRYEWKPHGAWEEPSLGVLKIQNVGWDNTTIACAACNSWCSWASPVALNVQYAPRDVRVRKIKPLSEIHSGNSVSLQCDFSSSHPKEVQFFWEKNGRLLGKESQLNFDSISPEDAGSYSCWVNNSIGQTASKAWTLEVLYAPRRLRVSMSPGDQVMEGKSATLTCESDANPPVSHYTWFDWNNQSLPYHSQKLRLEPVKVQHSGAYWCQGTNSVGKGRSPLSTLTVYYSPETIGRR
Description: (§1) Briefly, 2-fold dilutions of biotin-labeled AI-071 fusion protein were added into 96-well plated coated with indicated Siglec-Fc fusion proteins (all coating at 0.2 μg/mL), the amount of bound AI-071 protein was then detected by adding Avidin-HRP and OPD.
(§2) To evaluate the spectrum of Siglecs that binds to AI-071, recombinant IgG-Fc fusion protein containing one of the human siglec family members (Siglec-1, 2, 3, 4a, 5, 6, 7, 8, 9, 11, 14 and 15) were coated in 96-well plates and their binding to biotin-labeled AI-071 protein was detected in ELISA. The representative ELISA results are shown in FIG. 4B (Siglec-1, 2, 3, 4a, 5 and 6) and FIG. 4C (Siglec-7, 8, 9, 11, 14 and 15).

[2] = target: T2, human Siglec-3 Fc fusion protein (human, UniProt P20138 18-259, limits assumed)
T2 construct: Recombinant IgG-Fc fusion, coated at 0.2 µg/mL; not shown: IgG-Fc
T2 sequence (P20138 18-259 limits assumed): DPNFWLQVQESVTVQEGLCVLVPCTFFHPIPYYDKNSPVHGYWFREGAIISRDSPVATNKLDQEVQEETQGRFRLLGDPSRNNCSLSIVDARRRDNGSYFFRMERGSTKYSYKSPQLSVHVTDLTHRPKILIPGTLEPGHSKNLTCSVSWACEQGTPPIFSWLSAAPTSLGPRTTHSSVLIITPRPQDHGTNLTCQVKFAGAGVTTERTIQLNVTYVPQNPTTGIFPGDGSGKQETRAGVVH
Description: as §1, §2

[3] = target: T3, human Siglec-5 Fc fusion protein (human, UniProt O15389 17-434, limits assumed)
T3 construct: Recombinant IgG-Fc fusion, coated at 0.2 µg/mL; not shown: IgG-Fc
T3 sequence (looked up): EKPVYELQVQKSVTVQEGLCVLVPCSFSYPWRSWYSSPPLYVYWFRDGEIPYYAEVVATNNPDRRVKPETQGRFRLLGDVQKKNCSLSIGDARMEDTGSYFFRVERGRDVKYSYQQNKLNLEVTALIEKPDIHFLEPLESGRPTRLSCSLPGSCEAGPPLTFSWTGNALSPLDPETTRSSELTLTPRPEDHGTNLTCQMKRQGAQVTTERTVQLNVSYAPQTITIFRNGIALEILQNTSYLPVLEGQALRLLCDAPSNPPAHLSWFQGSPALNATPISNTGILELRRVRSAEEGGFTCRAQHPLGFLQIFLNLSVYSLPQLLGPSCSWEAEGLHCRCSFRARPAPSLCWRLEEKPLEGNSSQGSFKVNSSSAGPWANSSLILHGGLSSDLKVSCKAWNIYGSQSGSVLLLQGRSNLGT
Description: as §1, §2

[4] = target: T4, human Siglec-7 Fc fusion protein (human, UniProt Q9Y286 19-357, limits assumed)
T4 construct: Recombinant IgG-Fc fusion, coated at 0.2 µg/mL; not shown: IgG-Fc
T4 sequence (Q9Y286 19-357 limits assumed): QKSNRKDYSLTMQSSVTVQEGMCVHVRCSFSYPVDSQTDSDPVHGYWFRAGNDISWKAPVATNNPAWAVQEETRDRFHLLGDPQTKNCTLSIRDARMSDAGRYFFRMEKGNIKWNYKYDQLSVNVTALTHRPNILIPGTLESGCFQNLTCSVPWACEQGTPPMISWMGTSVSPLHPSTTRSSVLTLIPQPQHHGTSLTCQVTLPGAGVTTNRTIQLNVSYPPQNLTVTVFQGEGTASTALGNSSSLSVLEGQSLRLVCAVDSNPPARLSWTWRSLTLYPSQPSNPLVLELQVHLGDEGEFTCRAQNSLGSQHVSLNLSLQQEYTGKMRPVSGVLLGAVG
Description: as §1, §2

[5] = target: T5, human Siglec-9 Fc fusion protein (human, UniProt Q9Y336 18-348, limits assumed)
T5 construct: Recombinant IgG-Fc fusion, coated at 0.2 µg/mL; not shown: IgG-Fc
T5 sequence (Q9Y336 18-348 limits assumed): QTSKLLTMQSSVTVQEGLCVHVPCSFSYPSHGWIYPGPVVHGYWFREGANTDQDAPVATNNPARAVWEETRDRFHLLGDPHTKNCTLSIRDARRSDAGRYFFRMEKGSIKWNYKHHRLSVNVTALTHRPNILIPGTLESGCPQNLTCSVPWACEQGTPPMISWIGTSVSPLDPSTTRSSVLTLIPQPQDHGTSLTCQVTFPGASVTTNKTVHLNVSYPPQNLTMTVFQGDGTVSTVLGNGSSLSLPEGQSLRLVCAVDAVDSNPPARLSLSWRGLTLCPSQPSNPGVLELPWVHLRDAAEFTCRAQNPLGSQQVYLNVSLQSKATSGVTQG
Description: as §1, §2

[6] = target: T6, human Siglec-11 Fc fusion protein (human, UniProt Q96RL6 28-561, limits assumed)
T6 construct: Recombinant IgG-Fc fusion, coated at 0.2 µg/mL; not shown: IgG-Fc
T6 sequence (looked up): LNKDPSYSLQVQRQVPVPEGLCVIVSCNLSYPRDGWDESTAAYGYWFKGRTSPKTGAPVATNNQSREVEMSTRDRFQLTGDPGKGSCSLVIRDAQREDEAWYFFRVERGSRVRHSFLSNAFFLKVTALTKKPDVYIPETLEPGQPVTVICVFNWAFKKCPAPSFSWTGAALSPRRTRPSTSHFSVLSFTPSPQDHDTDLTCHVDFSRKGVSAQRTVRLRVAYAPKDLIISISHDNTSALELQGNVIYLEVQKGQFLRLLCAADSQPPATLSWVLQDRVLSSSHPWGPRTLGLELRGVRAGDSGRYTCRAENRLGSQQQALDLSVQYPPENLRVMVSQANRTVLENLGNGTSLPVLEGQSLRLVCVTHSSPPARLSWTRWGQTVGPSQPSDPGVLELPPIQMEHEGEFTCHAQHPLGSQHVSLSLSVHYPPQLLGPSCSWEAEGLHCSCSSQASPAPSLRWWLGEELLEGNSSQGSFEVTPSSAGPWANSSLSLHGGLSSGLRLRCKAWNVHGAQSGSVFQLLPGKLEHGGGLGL
Description: as §1, §2

[7] = target: T7, human Siglec-14 Fc fusion protein (human, UniProt Q08ET2 17-358, limits assumed)
T7 construct: Recombinant IgG-Fc fusion, coated at 0.2 µg/mL; not shown: IgG-Fc
T7 sequence (looked up): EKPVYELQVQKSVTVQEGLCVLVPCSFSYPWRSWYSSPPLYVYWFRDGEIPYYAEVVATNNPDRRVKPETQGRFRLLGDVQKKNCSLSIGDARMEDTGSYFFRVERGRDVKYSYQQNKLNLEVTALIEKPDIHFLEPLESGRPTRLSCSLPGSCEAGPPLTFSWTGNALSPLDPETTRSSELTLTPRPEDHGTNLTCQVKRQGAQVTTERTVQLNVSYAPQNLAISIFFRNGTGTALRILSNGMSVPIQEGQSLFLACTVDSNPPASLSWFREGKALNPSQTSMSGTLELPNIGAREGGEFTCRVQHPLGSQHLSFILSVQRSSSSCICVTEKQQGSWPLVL
Description: as §1, §2

Measured: binding result

B1: AI-071 fusion protein (Fc fusion)
chain: STSNSGLAPNPTSTSNSGLAPNPTSTSNSGLAPNPTSTSNSGLAPNPTSTSNSGLAPNPT[human IgG1 Fc skipped]
notes: Disulfide-linked homodimer; Used biotin-labeled in the Siglec panel ELISA; also called AI-071 Fc-fusion protein; AI-71
binds: [1] | [2] | [3] | [4] | [5] | [6] | [7]

Source: patent US20240400644A1 (ACROIMMUNE GUANGZHOU BIOTECH, published 2024)
